Assay results taken from PubChem BioAssay AID1345082 (National Center for Advancing Translational Sciences (NCATS), 2018).
The campaign covered roughly 94,000 compounds. About 4,000 (4.3%) were called active. This list was built around the results that the source calls inconclusive (neither active nor inactive); the mix of calls is not that of the screen. The call rests on the fitted dose curve; in most records, active means well fitted inhibition curve with a large enough effect; inconclusive means small, poorly fitted or top-dose-only effect; inactive means no such curve, though single readings can be large or run the other way. Potencies of inconclusive entries are doubtful fits and often do not repeat.

Experiment: Cytotoxic Profiling in NIH 3T3 Cell Line of Diverse Libraries Using Quantitative High-Throughput Screening; further: nearly all actives have a fitted effect of over 55% in size
Details: NIH 3T3 viability, CellTiter-Glo ATP luminescence, 48-72 h; activity change, negative = cytotoxicity: at 96.7 µM (top of the series) unless noted; series mostly up to 96.7 µM
Method in brief: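 ATP-dependent luminescence (CellTiter-Glo) served as the viability signal for NIH 3T3 cells treated with compound for 48 or 72 hr at 37 °C.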
On the % scale 0 is the no-effect control and ±100 the full control effect; potency means the concentration at half of the fitted maximal effect; tags describe the fitted curve by direction and shape.

Structure (SMILES) | activity change, negative = cytotoxicity | Potency | outcome
Cc1cc(C)n(CC(=O)N2CCC3(CC2)CC(CN2CCOCC2)N(C)C3)n1 (centres undefined) | inactive: -15.3% | – | –
CCc1nc2c(c(-c3ccc(Cl)cc3)n1)CN(C(=O)c1ccc(F)cc1)CC2 | – | inconclusive: 56.2 µM [inhibitor, partial curve, poor fit] | –
CN(Cc1cccc(N2CCN([S+](=O)([O-])c3cccc4ccccc34)CC2)c1F)[S+](C)(=O)[O-] | – | inconclusive: 7.94 µM [inhibitor, full curve] | –
Cc1nc(-c2cccc(Cl)c2)n(CC(=O)Nc2ccc3c(c2)OCO3)c(=O)c1CCO | – | inconclusive: 39.8 µM [inhibitor, partial curve, poor fit] | –
Cc1ccc(-n2c(C3CCN(C(=O)Cc4cccc(F)c4)CC3)n[nH]c2=O)cc1 | – | active: 10 µM | –
O=C(NC1CCN(c2cnn(CC3CC3)c(=O)c2)CC1)c1ccc2c(c1)OCO2 | inactive: -2.86% | – | –
COc1ccccc1-c1cn2c(n1)CO[C@@H](CNC1CCCC1)C2 | – | inconclusive: 100 µM [inhibitor, single point] | –
O=C(NCc1cccc(C(F)(F)F)c1)c1ccc2nnc(Cc3ccco3)n2c1 | – | inconclusive: 44.7 µM [inhibitor, partial curve, poor fit] | –
Cc1ccc(-c2ccccc2CN2CCN([S+](=O)([O-])c3cccs3)CC2)cc1Cl | inactive: -24.1% | – | –
COc1ccccc1C(CC(=O)NCCc1ccccc1)c1c[nH]c2ccccc12 (centres undefined) | – | active: 39.8 µM | –
O=C(CNC(=O)c1cccc(-c2ccc(C(F)(F)F)cc2)c1)NCCc1ccccc1 | inactive: -14% | – | –
CC(=O)N1CCCC1C(=O)N1CCC(N2Cc3cccn3C2=O)CC1 (centres undefined) | inactive: -21.1% | – | –
O=C(NCC1CC1)c1ccc2c(c1)OCCN(c1ccccc1)C2 | – | inconclusive: 50.1 µM [inhibitor, partial curve, poor fit] | –
O=C(NCc1ccco1)C1c2ccccc2C(=O)N(C2CCCCC2)C12CCCCC2 (centres undefined) | – | inconclusive: 50.1 µM [inhibitor, partial curve, poor fit] | –
COc1ccc(C(=O)NCCc2noc(-c3ccncc3)n2)cc1 | inactive: -9.59% | – | –
COc1ccc(Nc2ccnc(N3CCC(NC(=O)c4ccc(F)cc4)CC3)n2)cc1 | – | inconclusive: 31.6 µM [inhibitor, full curve, poor fit] | –
Cc1ccc(-c2cc(N3CCCN(C(=O)c4cccn4C)CC3)n[nH]2)cc1C | – | inconclusive: 50.1 µM [inhibitor, partial curve, poor fit] | –
Cc1nn(-c2ccccc2)c2c1C(C(C)C)N(C1CCCN(C(=O)Cc3ccccn3)C1)C2=O (centres undefined) | inactive: -29.8% | – | –
O=C(c1ccc(C(F)(F)F)cc1)N1CCCN(c2ccc3nnc(C4CC4)n3n2)CC1 | inactive: -29.8% | – | –
COc1ccc(C(=O)NC2CCN(c3cc(C(F)(F)F)ncn3)CC2)cc1 | – | inconclusive: 50.1 µM [inhibitor, partial curve, poor fit] | –
Cc1cc(Cl)ccc1S(=O)(=O)N1CCCC(Cn2cnc3cccnc32)C1 (centres undefined) | – | inconclusive: 35.5 µM [inhibitor, partial curve, poor fit] | –
Cc1ccsc1CN1CC(Oc2ccccc2C(=O)NC2CC2)C1 | inactive: -5.05% | – | –

Structure (SMILES) | activity change, negative = cytotoxicity | Potency | outcome
COc1cccc(CN2Cc3nc(-c4ccc(F)cc4)ccc3OCC2=O)c1 | – | active: 79.4 µM | –
CC1=NOC2(CCN(Cc3ccncc3)CC2)C1 | – | inconclusive: 112 µM [inhibitor, single point] | –
COc1ccc(-c2cc(N3CCCC(NC(=O)CCc4ccccc4OC)C3)n[nH]2)cc1 (centres undefined) | – | inconclusive: 44.7 µM [inhibitor, partial curve, poor fit] | –
COc1ccc(CC(=O)Nc2ccc([C@H]3OCC(=O)N(Cc4cccnc4)[C@@H]3CO)cc2)cc1 | inactive: -13.8% | – | –
O=C(NCC1Cn2cccc2C(=O)N1Cc1ccccc1)c1cc(F)ccc1F (centres undefined) | – | inconclusive: 39.8 µM [inhibitor, partial curve] | –
Fc1ccc(-c2nnc3ccc(NCCc4ccccc4)nn23)nc1 | – | inconclusive: 56.2 µM [inhibitor, partial curve, poor fit] | –
O=C(NC1CCCCC1)c1cn2cc(-c3ccccc3)sc2n1 | – | inconclusive: 56.2 µM [inhibitor, partial curve, poor fit] | –
CC(C)NC(=O)N1CCN2C(=O)c3cc(-c4ccccc4F)ccc3NC(=O)[C@H]2C1 | – | inconclusive: 112 µM [inhibitor, single point] | –
COc1ccc(C(=O)N[C@@H]2CN(Cc3ccccc3)C[C@H]2CN(C)C)cc1F | – | active: 20 µM | –
COc1ccc(-c2cc(N3CCCN(C(=O)Cc4c(F)cccc4Cl)CC3)n[nH]2)cc1 | – | inconclusive: 44.7 µM [inhibitor, partial curve, poor fit] | –
COc1cccc(-c2ccnc3nc(-c4cccs4)nn23)c1 | – | inconclusive: 44.7 µM [inhibitor, partial curve, poor fit] | –
O=C(NC1CC1)[C@@H]1C[C@H](Oc2cccnc2)CN1C(=O)CCc1ccccc1 | inactive: 2.02% | – | –
CCOc1ccccc1NC(=O)N1CCCC(c2noc(COc3ccccc3)n2)C1 (centres undefined) | – | inconclusive: 44.7 µM [inhibitor, partial curve, poor fit] | –
O=C(Nc1ccc(I)cc1)c1cc(-c2ccc[nH]2)n[nH]1 | – | inconclusive: 31.6 µM [inhibitor, partial curve, poor fit] | –
CN1CCC2(C1)CN(Cc1ccccc1)c1ccc(C(=O)NCCc3ccccn3)cc12 (centres undefined) | – | inconclusive: 89.1 µM [inhibitor, partial curve] | –
CCOc1ccc(CN2CCCC(CO)(CCc3ccccc3)C2)cc1CO (centres undefined) | – | inconclusive: 56.2 µM [inhibitor, partial curve, poor fit] | –
CCOc1ccc(CN2CCN(c3nc(C)cc(NC)n3)CC2CCO)cc1 (centres undefined) | – | inconclusive: 50.1 µM [inhibitor, partial curve, poor fit] | –
CNC(=O)c1ccc2c(c1)NC(C)(CNc1ccccc1)CO2 (centres undefined) | inactive: -24% [at 138 µM] | – | –
CC(C)(C)c1ccc(-c2cc(C[C@H]3CNCC[C@H]3CC(=O)NCc3cccs3)no2)cc1 | – | inconclusive: 22.4 µM [inhibitor, full curve, poor fit] | –
O=C(c1cc(F)ccc1F)N1CCC2(CC1)NC(=O)N(Cc1ccccc1)C2=O | inactive: -13.1% | – | –
O=C(N[C@H]1CCN2C(=O)c3cc(-c4ccc(F)cc4F)ccc3NC(=O)[C@@H]2C1)c1cccs1 | – | inconclusive: 31.6 µM [inhibitor, full curve] | –
Cc1ccc(NC(=O)c2ccc3c(c2)N(C)C2CCCCCN2C3=O)cc1F (centres undefined) | – | inconclusive: 50.1 µM [inhibitor, single point] | –

Structure (SMILES) | activity change, negative = cytotoxicity | Potency | outcome
O=C(Nc1ccc(Cl)cc1)N1CCCC(C(=O)N2CCC(N3Cc4cccn4C3=O)CC2)C1 (centres undefined) | – | inconclusive: 50.1 µM [inhibitor, partial curve, poor fit] | –
O=C1N(Cc2ccccc2)c2ccccc2C12CCN([S+](=O)([O-])c1ccccc1)C2 (centres undefined) | – | inconclusive: 20 µM [inhibitor, full curve, poor fit] | –
O=C(NCc1ccc(Cl)cc1)c1cnn2ncccc12 | – | inconclusive: 70.8 µM [inhibitor, partial curve] | –
CC(C)(C)c1nnc2ccc(C(=O)NCc3ccccn3)cn12 | inactive: -29.3% [at 138 µM] | – | –
Cn1cccc1C(=O)N1CCC(n2cc(-c3nc(-c4ccccc4)no3)nn2)CC1 | – | inconclusive: 3.55 µM [inhibitor, full curve, poor fit] | –
COc1ccccc1C(O)c1nc(Nc2cccc(F)c2)n[nH]1 (centres undefined) | inactive: -37.1% [at 138 µM] | – | –
CCN(CC)c1cc(CCC(=O)N2CCN(c3ccc(Cl)cc3)CC2)ccn1 | – | inconclusive: 35.5 µM [inhibitor, partial curve, poor fit] | –
CCN(CC)C(=O)C[C@@H]1c2nc(NC(=O)C3CCC3)sc2C[C@@H]2[C@](C)(CO)[C@H](O)CC[C@]21C | – | inconclusive: 44.7 µM [inhibitor, partial curve] | –
CCN1CC(C(=O)NCc2cccc(-c3ccccc3)c2)CCC1=O (centres undefined) | – | inconclusive: 50.1 µM [inhibitor, partial curve, poor fit] | –
Cc1cc(C)c(CNC(=O)c2cc(-c3cnn(C)c3C)cc3c2OCCN3C)c(=O)[nH]1 | – | inconclusive: 56.2 µM [inhibitor, partial curve, poor fit] | –
Cc1ccc(-c2cccc(CN3CCCC3C(=O)NCc3ccc(C(F)(F)F)cc3)c2)cc1Cl (centres undefined) | – | active: 31.6 µM | –
COc1cccc(CN2CCC3(CNc4ccccc4[S+](=O)([O-])N3)C2)c1 (centres undefined) | – | inconclusive: 50.1 µM [inhibitor, partial curve, poor fit] | –
Cc1cc(=O)n(CC(=O)Nc2ccccc2F)c(-c2ccc(Cl)cc2)n1 | – | inconclusive: 50.1 µM [inhibitor, partial curve, poor fit] | –
CC(=O)NC1CC2(CCN(C(=O)C3CCN(C)CC3)CC2)c2ccccc21 (centres undefined) | – | active: 35.5 µM | –
COc1cccc(S(=O)(=O)N2CCCCC2c2n[nH]c(C)n2)c1 (centres undefined) | – | – | inactive
COc1ccccc1C(=O)Nc1cc(-c2cccnc2)nn1-c1ccccc1 | – | inconclusive: 50.1 µM [inhibitor, partial curve, poor fit] | –
Cc1noc(-c2ccco2)c1C(=O)NCCC(c1ccccc1)c1ccccc1 | – | inconclusive: 35.5 µM [inhibitor, partial curve] | –
COC(=O)[C@@H]1Cc2ncn(Cc3ccc(Cl)cc3)c2CN1Cc1cccnc1 | – | inconclusive: 89.1 µM [inhibitor, partial curve] | –
Cn1ccc2c(C(=O)NCc3cccnc3)nc(-c3ccccc3C(F)(F)F)cc21 | – | active: 44.7 µM | –
COCCNC(=O)C1CCCN1Cc1cccc(-c2cccc(OC)c2)c1 (centres undefined) | – | inconclusive: 50.1 µM [inhibitor, partial curve, poor fit] | –
